This is an account of results in article PMC12040169 (PLOS Biology, 2025).

This is one part of the list.

For the assay, the system named is T1, C. trachomatis L2/434/Bu expressing GFP (CTL2-GFP).
T1 construct: L2/434/Bu GFP intracellular growth in HeLa cells
On the set-up: species or system HeLa; C. trachomatis total inclusion area by high-content imaging, normalised to DMSO. The note with it: total inclusion area; 28.5 h, 10 µM; inhibitor. The gist of the method: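 After bulk GFP and resorufin fluorescence reads, cells were fixed, stained with Hoechst and imaged by high-content microscopy. Inclusion area and number (GFP) stood in for chlamydial growth, nuclei count (Hoechst) for host cell viability. MICs were derived as for the bulk readout.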
For `Cc1ccc(C(=O)NCCN2CCOCC2)c(N2CCN(C(=O)c3ccco3)CC2)n1` [CBK076312], the “% of control remaining” value is listed as 58.1041. As for `Cc1ccccc1NC(=O)Cc1nnc(SCC(=O)c2ccccc2)n1C` [CBK269719], the figure is 65.289. As for `Oc1cccc(OCCOc2nc3ccccc3nc2N2CCCC2)c1` [CBK115901], the figure is 96.7669; as for `CCn1cc(C(=O)N2CCc3sccc3C2)c(=O)c2ccc(C)nc21` [CBK305006], 26.5535; as for `Cc1ccc2oc(-c3cccc(NC(=O)c4ccccc4C(=O)O)c3)nc2c1` [CBK300481], 94.8033. As for `CCSc1nc(-c2ccncc2)ccc1C#N` [CBK288539], the figure is 65.0157.

For `NC(=O)c1cccc(-c2nccnc2N2CCN(CCO)CC2)c1` [CBK036726], the “% of control remaining” value was 99.3528. Then `CCN(CC)C(=O)C1CCCN(C(=O)NC2CCc3ccccc32)C1` (stereo not drawn) [CBK156156], with 103.631. Then `CN(C)CCN(C)C(=O)c1ccc(-c2cccc(Cl)c2Cl)nc1N(C)C` [CBK106082], with 92.7724. As for `COCCNc1cc(-c2ccc(Cl)cc2)ncn1` [CBK090797], the figure is 65.8643; as for `CN(C)CCNC(=O)Cc1csc(-c2ccc(Cl)cc2)n1` [CBK107299], 68.6693; as for `CSc1ccc(-c2nccnc2OCCN(C(C)C)C(C)C)cc1` [CBK106805], 85.2425. Turning to `O=C([C@@H]1Cc2c([nH]c3ccccc23)C2(CCN(Cc3ccccc3)C2)N1)N1CCOCC1` (stereo partly drawn) [CBK059363T], the “% of control remaining” value came to 97.7105. As for `O=C(C[C@@H]1O[C@H](CNCc2cccc(Cl)c2)[C@@H](O)[C@H]1O)N1CCc2ccccc21` [CBK288918], the figure is 90.6354; as for `c1ccc(-c2cc(CC3(NCC4CCCCC4)COC3)no2)nc1` [CBK289644], 106.948; as for `CCN(CC)C(=O)N1CCC(c2cccnc2)CC1` [CBK283535], 96.8095.

On to `NC(=O)c1c(NC(=O)c2cnn3cccnc23)sc2c1CCCC2` [CBK268437], for which the “% of control remaining” value was determined as 124.186. As for `Cc1ccc(C(=O)NCCc2ccc(S(N)(=O)=O)cc2)c(N2CCN(C(=O)c3ccco3)CC2)n1` [CBK076345], the figure is 103.77; as for `CCN(CC)c1ccc(NC(=O)N(CCCN2CCOCC2)Cc2ccc(OC)c(OC)c2)cc1` [CBK159168], 91.7642; as for `O=C(NCc1ccccc1)c1cccc(NC(=O)c2cc(-c3ccncc3)nc3ccc(Cl)cc23)c1` [CBK267769], 83.253. As for `NS(=O)(=O)c1ccc(S(=O)(=O)N2CCN(C/C=C/c3ccccc3)CC2)cc1` [CBK266723C], the figure is 113.013.
